Measurements from the supplement of paper PMC9151546.
Repeats are few or missing, and single values can be far off.

Experiments:
CHO-K1 [1] = assay: relative survival (nuclei to bead ratio vs DMSO control) (% of vehicle control); higher = more surviving cells
Protocol: (§1)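 Flow-cytometric in vitro micronucleus assay (Litron MicroFlow) in CHO-K1 cells in 96-well plates, 19 concentrations (4.5-200 µM, n=1 per concentration). Without S9, cells were exposed for 24 h and sampled at 48 h. With Aroclor 1254-induced rat liver S9, cells were exposed for 3-4 h and sampled at 27-28 h. Read-outs are %MN and %hypodiploid nuclei relative to nucleated events, and relative survival as the nuclei-to-bead ratio versus the 1% DMSO vehicle control (x100).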

CHO-K1 [2] = assay: micronucleus frequency (% of nucleated events); higher = more micronuclei (genotoxic)
CHO-K1 [3] = assay: hypodiploid nuclei frequency (% of nucleated events); higher = more hypodiploid events (aneugenic)
Protocol: as §1
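Throughout, for hypodiploid nuclei frequency (% of nucleated events): hypodiploid nuclei gated on a flow cytometer with 488 nm excitation after SYTOX Green staining, cultures at 37 °C, positive controls vinblastine without S9 and cyclophosphamide with S9.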
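Throughout, for micronucleus frequency (% of nucleated events): cells lysed with nuclei stained by SYTOX Green, then micronucleus-gated events counted against nucleated events by flow cytometry with 488 nm excitation.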
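Throughout, for relative survival (nuclei to bead ratio vs DMSO control): Lysed-cell nuclei stained with SYTOX Green and counted against counting beads by flow cytometry at 488 nm excitation, with vinblastine (no S9) and cyclophosphamide (plus S9) as positive controls.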

Cc1cccc(C)c1O [2,6-Dimethylphenol]
Conditions	hypodiploid nuclei frequency, CHO-K1 [3] [%]	micronucleus frequency, CHO-K1 [2] [%]	relative survival, CHO-K1 [1]
concentration: 4.5 (µM), S9 metabolic activation: with S9, exposure time: 3-4 hours	0.3	1.74	111
concentration: 4.5 (µM), S9 metabolic activation: without S9, exposure time: 24 hours	0.54	1.6	71.6
concentration: 5.63 (µM), S9 metabolic activation: with S9, exposure time: 3-4 hours	0.22	1.2	116
concentration: 5.63 (µM), S9 metabolic activation: without S9, exposure time: 24 hours	0.74	1.54	77.2
concentration: 7.04 (µM), S9 metabolic activation: with S9, exposure time: 3-4 hours	0.1	1.46	104
concentration: 7.04 (µM), S9 metabolic activation: without S9, exposure time: 24 hours	0.56	1.48	74.3
concentration: 8.8 (µM), S9 metabolic activation: with S9, exposure time: 3-4 hours	0.38	2.02	104
concentration: 8.8 (µM), S9 metabolic activation: without S9, exposure time: 24 hours	0.74	2.12	85.5
concentration: 11 (µM), S9 metabolic activation: with S9, exposure time: 3-4 hours	0.3	1.64	100
concentration: 11 (µM), S9 metabolic activation: without S9, exposure time: 24 hours	0.74	2.04	95.3
concentration: 13.7 (µM), S9 metabolic activation: with S9, exposure time: 3-4 hours	0.24	1.14	97.4
concentration: 13.7 (µM), S9 metabolic activation: without S9, exposure time: 24 hours	0.8	1.86	66.3
concentration: 17.2 (µM), S9 metabolic activation: with S9, exposure time: 3-4 hours	0.34	1.64	97.2
concentration: 17.2 (µM), S9 metabolic activation: without S9, exposure time: 24 hours	0.68	2.06	82.6
concentration: 21.5 (µM), S9 metabolic activation: with S9, exposure time: 3-4 hours	0.18	1.42	118
concentration: 21.5 (µM), S9 metabolic activation: without S9, exposure time: 24 hours	0.6	1.88	98.7
concentration: 26.8 (µM), S9 metabolic activation: with S9, exposure time: 3-4 hours	0.24	1.94	120
concentration: 26.8 (µM), S9 metabolic activation: without S9, exposure time: 24 hours	0.56	1.56	77.2
concentration: 33.6 (µM), S9 metabolic activation: with S9, exposure time: 3-4 hours	0.3	1.62	114
concentration: 33.6 (µM), S9 metabolic activation: without S9, exposure time: 24 hours	0.64	1.64	91.4
concentration: 41.9 (µM), S9 metabolic activation: with S9, exposure time: 3-4 hours	0.44	1.86	128
concentration: 41.9 (µM), S9 metabolic activation: without S9, exposure time: 24 hours	0.68	1.26	85.5
concentration: 52.4 (µM), S9 metabolic activation: with S9, exposure time: 3-4 hours	0.18	1.82	116
concentration: 52.4 (µM), S9 metabolic activation: without S9, exposure time: 24 hours	0.68	1.44	87.3
concentration: 65.5 (µM), S9 metabolic activation: with S9, exposure time: 3-4 hours	0.12	2.2	126
concentration: 65.5 (µM), S9 metabolic activation: without S9, exposure time: 24 hours	0.74	2.04	89.7
concentration: 81.9 (µM), S9 metabolic activation: with S9, exposure time: 3-4 hours	0.3	1.76	123
concentration: 81.9 (µM), S9 metabolic activation: without S9, exposure time: 24 hours	0.86	2.8	114
concentration: 102 (µM), S9 metabolic activation: with S9, exposure time: 3-4 hours	0.18	1.58	116
concentration: 102 (µM), S9 metabolic activation: without S9, exposure time: 24 hours	1.18	2.34	84.4
concentration: 128 (µM), S9 metabolic activation: with S9, exposure time: 3-4 hours	0.22	1.58	96.1
concentration: 128 (µM), S9 metabolic activation: without S9, exposure time: 24 hours	1	2.3	83
concentration: 160 (µM), S9 metabolic activation: with S9, exposure time: 3-4 hours	0.16	1.36	114
concentration: 160 (µM), S9 metabolic activation: without S9, exposure time: 24 hours	1.04	2.56	92.2
concentration: 200 (µM), S9 metabolic activation: with S9, exposure time: 3-4 hours	0.32	1.38	111
concentration: 200 (µM), S9 metabolic activation: without S9, exposure time: 24 hours	1.1	2.62	81.3

COc1ccccc1N [2-Anisidine]
Conditions	hypodiploid nuclei frequency, CHO-K1 [3] [%]	micronucleus frequency, CHO-K1 [2] [%]	relative survival, CHO-K1 [1]
concentration: 4.48 (µM), S9 metabolic activation: with S9, exposure time: 3-4 hours	0.18	1.12	122
concentration: 4.48 (µM), S9 metabolic activation: without S9, exposure time: 24 hours	0.94	1.18	110
concentration: 5.6 (µM), S9 metabolic activation: with S9, exposure time: 3-4 hours	0.2	1.12	118
concentration: 5.6 (µM), S9 metabolic activation: without S9, exposure time: 24 hours	0.8	1.2	118
concentration: 7 (µM), S9 metabolic activation: with S9, exposure time: 3-4 hours	0.12	0.98	114
concentration: 7 (µM), S9 metabolic activation: without S9, exposure time: 24 hours	0.82	1	113
concentration: 8.75 (µM), S9 metabolic activation: with S9, exposure time: 3-4 hours	0.16	1.66	96.7
concentration: 8.75 (µM), S9 metabolic activation: without S9, exposure time: 24 hours	0.78	1.16	106
concentration: 10.9 (µM), S9 metabolic activation: with S9, exposure time: 3-4 hours	0.28	1.16	107
concentration: 10.9 (µM), S9 metabolic activation: without S9, exposure time: 24 hours	0.92	1.42	111
concentration: 13.7 (µM), S9 metabolic activation: with S9, exposure time: 3-4 hours	0.14	1.14	93.7
concentration: 13.7 (µM), S9 metabolic activation: without S9, exposure time: 24 hours	1.38	1.1	103
concentration: 17.1 (µM), S9 metabolic activation: with S9, exposure time: 3-4 hours	0.34	1.2	93.1
concentration: 17.1 (µM), S9 metabolic activation: without S9, exposure time: 24 hours	1.08	1.2	117
concentration: 21.4 (µM), S9 metabolic activation: with S9, exposure time: 3-4 hours	0.28	1.04	98.9
concentration: 21.4 (µM), S9 metabolic activation: without S9, exposure time: 24 hours	0.86	1.06	94.7
concentration: 26.7 (µM), S9 metabolic activation: with S9, exposure time: 3-4 hours	0.24	1.06	122
concentration: 26.7 (µM), S9 metabolic activation: without S9, exposure time: 24 hours	0.9	1.44	108
concentration: 33.4 (µM), S9 metabolic activation: with S9, exposure time: 3-4 hours	0.42	1.1	136
concentration: 33.4 (µM), S9 metabolic activation: without S9, exposure time: 24 hours	0.76	1.86	122
concentration: 41.7 (µM), S9 metabolic activation: with S9, exposure time: 3-4 hours	0.12	1.18	132
concentration: 41.7 (µM), S9 metabolic activation: without S9, exposure time: 24 hours	1.02	1.32	115
concentration: 52.2 (µM), S9 metabolic activation: with S9, exposure time: 3-4 hours	0.26	1	139
concentration: 52.2 (µM), S9 metabolic activation: without S9, exposure time: 24 hours	0.8	1.52	112
concentration: 65.2 (µM), S9 metabolic activation: with S9, exposure time: 3-4 hours	0.26	1	124
concentration: 65.2 (µM), S9 metabolic activation: without S9, exposure time: 24 hours	0.98	1.34	106
concentration: 81.5 (µM), S9 metabolic activation: with S9, exposure time: 3-4 hours	0.16	0.76	116
concentration: 81.5 (µM), S9 metabolic activation: without S9, exposure time: 24 hours	1.2	1.52	101
concentration: 102 (µM), S9 metabolic activation: with S9, exposure time: 3-4 hours	0.22	1	118
concentration: 102 (µM), S9 metabolic activation: without S9, exposure time: 24 hours	1.28	1.98	102
concentration: 127 (µM), S9 metabolic activation: with S9, exposure time: 3-4 hours	0.34	0.9	118
concentration: 127 (µM), S9 metabolic activation: without S9, exposure time: 24 hours	1.62	1.54	106
concentration: 159 (µM), S9 metabolic activation: with S9, exposure time: 3-4 hours	0.18	1	98.5
concentration: 159 (µM), S9 metabolic activation: without S9, exposure time: 24 hours	1.9	1.9	99.5
concentration: 199 (µM), S9 metabolic activation: with S9, exposure time: 3-4 hours	0.26	0.98	103
concentration: 199 (µM), S9 metabolic activation: without S9, exposure time: 24 hours	2.42	2	91

CC(C)(c1cc(Br)c(O)c(Br)c1)c1cc(Br)c(O)c(Br)c1 [3,3',5,5'-Tetrabromobisphenol A]
Conditions	hypodiploid nuclei frequency, CHO-K1 [3] [%]	micronucleus frequency, CHO-K1 [2] [%]	relative survival, CHO-K1 [1]
concentration: 4.3 (µM), S9 metabolic activation: with S9, exposure time: 3-4 hours	0.54	2.22	118
concentration: 4.3 (µM), S9 metabolic activation: without S9, exposure time: 24 hours	0.44	1.06	83.6
concentration: 5.38 (µM), S9 metabolic activation: with S9, exposure time: 3-4 hours	0.14	0.98	115
concentration: 5.38 (µM), S9 metabolic activation: without S9, exposure time: 24 hours	0.3	1.3	111
concentration: 6.72 (µM), S9 metabolic activation: with S9, exposure time: 3-4 hours	0.28	1.7	107
concentration: 6.72 (µM), S9 metabolic activation: without S9, exposure time: 24 hours	0.48	1.04	135
concentration: 8.4 (µM), S9 metabolic activation: with S9, exposure time: 3-4 hours	0.24	1.46	129
concentration: 8.4 (µM), S9 metabolic activation: without S9, exposure time: 24 hours	0.4	1.2	124
concentration: 10.5 (µM), S9 metabolic activation: with S9, exposure time: 3-4 hours	0.2	0.9	116
concentration: 10.5 (µM), S9 metabolic activation: without S9, exposure time: 24 hours	0.34	0.86	92.2
concentration: 13.1 (µM), S9 metabolic activation: with S9, exposure time: 3-4 hours	0.24	1.1	128
concentration: 13.1 (µM), S9 metabolic activation: without S9, exposure time: 24 hours	0.44	0.94	149
concentration: 16.4 (µM), S9 metabolic activation: with S9, exposure time: 3-4 hours	0.32	0.82	102
concentration: 16.4 (µM), S9 metabolic activation: without S9, exposure time: 24 hours	0.48	1.08	140
concentration: 20.5 (µM), S9 metabolic activation: with S9, exposure time: 3-4 hours	0.26	0.84	103
concentration: 20.5 (µM), S9 metabolic activation: without S9, exposure time: 24 hours	0.34	1.26	114
concentration: 25.6 (µM), S9 metabolic activation: with S9, exposure time: 3-4 hours	0.2	1.42	116
concentration: 25.6 (µM), S9 metabolic activation: without S9, exposure time: 24 hours	0.58	0.92	52.3
concentration: 32 (µM), S9 metabolic activation: with S9, exposure time: 3-4 hours	0.62	1.48	99.8
concentration: 32 (µM), S9 metabolic activation: without S9, exposure time: 24 hours	0.52	1.1	144
concentration: 40.1 (µM), S9 metabolic activation: with S9, exposure time: 3-4 hours	0.9	2.56	85
concentration: 40.1 (µM), S9 metabolic activation: without S9, exposure time: 24 hours	0.68	1.82	67.1
concentration: 50.1 (µM), S9 metabolic activation: with S9, exposure time: 3-4 hours	0.6	1.96	82.2
concentration: 50.1 (µM), S9 metabolic activation: without S9, exposure time: 24 hours	1.12	1.3	96
concentration: 62.6 (µM), S9 metabolic activation: with S9, exposure time: 3-4 hours	0.54	6.82	62.3
concentration: 62.6 (µM), S9 metabolic activation: without S9, exposure time: 24 hours	1.36	1.58	82.3
concentration: 78.2 (µM), S9 metabolic activation: with S9, exposure time: 3-4 hours	–	–	31.3
concentration: 78.2 (µM), S9 metabolic activation: without S9, exposure time: 24 hours	4.28	4.12	54.3
concentration: 98 (µM), S9 metabolic activation: without S9, exposure time: 24 hours	8.61	5.66	41.3
concentration: 122 (µM), S9 metabolic activation: with S9, exposure time: 3-4 hours	–	–	8.34
concentration: 122 (µM), S9 metabolic activation: without S9, exposure time: 24 hours	3.82	3.85	44.6
concentration: 153 (µM), S9 metabolic activation: without S9, exposure time: 24 hours	–	–	37.9
concentration: 191 (µM), S9 metabolic activation: without S9, exposure time: 24 hours	–	–	18
